The target of assay [1] is T1, glyceraldehyde-3-phosphate dehydrogenase (GAPDH) from human erythrocytes (human, UniProt P04406 2-335, biotinylated using Sulfo-NHS-LC-biotin (for the titrations); unmodified in the check of paragraph 109 and in HEK-293 cells).
T1 construct: The same entry is used for the endogenous GAPDH stained in fixed HEK-293 cells
The experiment in a line: yeast surface display titration, flow cytometry.

The target of assay [2] is T1, glyceraldehyde-3-phosphate …. Nature of the assay: yeast surface display titration, flow cytometry; triplicate; estimate from low concentration data (hook effect above 100 nM GAPDH).
A further assay deals with T2, streptavidin (UniProt P22629 part only, limits assumed).
T2 construct: On polystyrene beads (Spherotech) in the assays with soluble 1.3 GFAb; also called streptavidin alone; streptavidin-coated polystyrene beads
The experiment in a line: yeast surface display.

Assay [3] addresses streptavidin-phycoerythrin conjugate (UniProt P22629 part only). Nature of the assay: yeast surface display titration, flow cytometry; triplicate titrations, KD ± SD.

As a reminder, the Kd is the constant that tells how readily two partners part at equilibrium.

T1 sequence (P04406 2-335 limits assumed): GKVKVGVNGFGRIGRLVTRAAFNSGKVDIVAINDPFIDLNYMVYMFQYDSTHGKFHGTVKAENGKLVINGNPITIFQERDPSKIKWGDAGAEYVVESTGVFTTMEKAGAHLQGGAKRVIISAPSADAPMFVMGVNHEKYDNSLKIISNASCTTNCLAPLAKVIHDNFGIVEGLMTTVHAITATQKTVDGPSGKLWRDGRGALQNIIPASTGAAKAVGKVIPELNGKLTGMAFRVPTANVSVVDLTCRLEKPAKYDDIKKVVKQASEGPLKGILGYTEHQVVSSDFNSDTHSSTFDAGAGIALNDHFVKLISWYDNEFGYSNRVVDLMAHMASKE
streptavidin, sequence (P22629 37-163 limits assumed): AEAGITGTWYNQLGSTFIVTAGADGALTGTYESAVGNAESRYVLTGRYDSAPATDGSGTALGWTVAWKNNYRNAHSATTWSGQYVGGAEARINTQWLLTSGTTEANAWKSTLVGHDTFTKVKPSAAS

B1: G7 GFAb (designed binder)
chain: MSKGEELFTGVVPILVELNGDVNGHKFSVSGEGEGDATHGKLTLKFICTTGKLPVPWPTLVTTLGYGVQCFARYPDHMKQHDFFKSTMPEGYVQERTIFFKDLKNVIYPFLYATSDGTYKTRAEVKFEGGTLVNRIELKGIDFKEDGNILGHKLEYNYNSHNVYIMADKQKNGIKANFKIRHNIKSRRVTKTKHKTRDGSVQLADHYQQNTPIGDGPVLLPDNHYLSTQSKLSKDPNEKRDHMVLVEFVTAAGITHGMDELYK
notes: Scaffold 20-5-8
As to B1, the Kd in assay [1] is greater than 500 nM.

B2: G6 GFAb (designed binder)
chain: MSKGEELFTGVVPILVELNGDVNGHKFSVSGEGEGDATHGKLTLKFICTTGKLPVPWPTLVTTLGYGVQCFARYPDHMKQHDFFKSTMPEGYVQERTIFFKDLKRVSRFLLTTTSDGTYKTRAEVKFEGGTLVNRIELKGIDFKEDGNILGHKLEYNYNSHNVYIMADKQKNGIKANFKIRHNIKSRKSRIISSQTRDGSVQLADHYQQNTPIGDGPVLLPDNHYLSTQSKLSKDPNEKRDHMVLVEFVTAAGITHGMDELYK
notes: Scaffold 20-5-8
As to B2, the Kd in assay [2] is 18 nM.

B3: G4 GFAb (designed binder)
chain: MSKGEELFTGVVPILVELNGDVNGHKFSVSGEGEGDATHGKLTLKFICTTGKLPVPWPTLVTTLGYGVQCFARYPDHMKQHDFFKSTMPEGYVQERTIFFKDLKRGVSKSFLLTSDGTYKTRAEVKFEGGTLVNRIELKGIDFKEDGNILGHKLEYNYNSHNVYIMADKQKNGIKANFKIRHNIKSRQGITKGYKTRDGSVQLADHYQQNTPIGDGPVLLPDNHYLSTQSKLSKDPNEKRDHMVLVEFVTAAGITHGMDELYK
notes: Scaffold 20-5-8
As to B3, the Kd in assay [1] was greater than 500 nM.

B4: 1.3 GFAb (designed binder)
chain: MSKGEELFTGVVPILVELNGDVNGHKFSVSGEGEGDATHGKLTLKFICTTGKLPVPWPTLVTTLGYGVQCFARYPDHMKQHDFFKSTMPEGYVQERTIFFKDLKAISRSFFSTTSDGTYKTRAEVKFEGGTLVNRIELKGIDFKEDGNILGHKLEYNYNSHNVYIMADKQKNGIKANFKIRHNIKSRIRNLKYTNTRDGSVQLADHYQQNTPIGDGPVLLPDNHYLSTQSKLSKDPNEKRDHMVLVEFVTAAGITHGMDELYK
notes: Scaffold 20-5-8
In the case of B4, in the assay with streptavidin, the binding result is listed as “binds”. Moreover, the Kd in assay [3] was 70 nM.

B5: G8 GFAb (designed binder)
chain: MSKGEELFTGVVPILVELNGDVNGHKFSVSGEGEGDATHGKLTLKFICTTGKLPVPWPTLVTTLGYGVQCFARYPDHMKQHDFFKSTMPEGYVQERTIFFKDLKSHCLFRKCYTSDGTYKTRAEVKFEGGTLVNRIELKGIDFKEDGNILGHKLEYNYNSHNVYIMADKQKNGIKANFKIRHNIKSRARSIRMKVTRDGSVQLADHYQQNTPIGDGPVLLPDNHYLSTQSKLSKDPNEKRDHMVLVEFVTAAGITHGMDELYK
notes: Scaffold 20-5-8
In the case of B5, the Kd in assay [1] is greater than 500 nM.

The values are drawn from patent US20100137158A1 (WISCONSIN ALUMNI RESEARCH FOUNDATION, published 2010).
